Results reported in the supplement of paper PMC11543636.
Each value is the number of isolates with that result; steps that no isolate showed are left empty. MIC of clinical M. tuberculosis isolates from a national drug-resistance survey, broth microdilution on MYCOTB, UKMYC5 or UKMYC6 plates (ranges differ by plate), read after 10-21 days; higher = less susceptible. Call: the paper's susceptible [S] / resistant [R] by the drug's critical concentration (it differs by plate for some drugs); calls for ofloxacin and levofloxacin are not shown. MYCOTB plates carry ofloxacin; the paper halves those MICs to stand for levofloxacin, and they are doubled back here. The top step of a plate is printed with and without '>' in the source and is marked '>=' when plain; the plain lowest step of rifampicin and kanamycin on MYCOTB is marked '<='. Isolates that the source marks as part of the WHO data set are not listed here.

Legend:
Experiment in all cases: Isolates counted by MIC; Broth microdilution on commercial drug-susceptibility plates, read by two operators.
[1] = system: Mycobacterium tuberculosis lineage 2 on plate UKMYC5 (529 isolates)
[2] = system: Mycobacterium tuberculosis lineage 4 on plate UKMYC5 (155 isolates)
[3] = system: Mycobacterium tuberculosis lineage 2 on plate UKMYC6 (1560 isolates)
[4] = system: Mycobacterium tuberculosis lineage 3 on plate UKMYC6 (380 isolates)
[5] = system: Mycobacterium tuberculosis lineage 4 on plate UKMYC6 (614 isolates)
[6] = system: Mycobacterium tuberculosis lineage 3 on plate UKMYC6 (383 isolates)
[7] = system: Mycobacterium tuberculosis lineage 4 on plate UKMYC6 (615 isolates)
[8] = system: Mycobacterium tuberculosis lineage 4 on plate MYCOTB (1613 isolates)
[9] = system: Mycobacterium tuberculosis lineage 2 on plate MYCOTB (3815 isolates)
[10] = system: Mycobacterium tuberculosis lineage 1 on plate MYCOTB (31 isolates)

CC(=O)NC[C@H]1CN(c2ccc(N3CCOCC3)c(F)c2)C(=O)O1 [linezolid]
isolate count
Conditions	MIC: 0.06 mg/L	MIC: 0.12 mg/L	MIC: 0.25 mg/L	MIC: 0.5 mg/L	MIC: 1 mg/L	MIC: 2 mg/L	MIC: >4 mg/L	MIC: ≤0.03 mg/L	MIC: ≤0.06 mg/L	MIC: ≥4 mg/L
[1]	1 [S]	7 [S]	77 [S]	414 [S]	24 [S]	3 [R]	–	3 [S]	–	–
[2]	2 [S]	4 [S]	35 [S]	100 [S]	13 [S]	–	–	1 [S]	–	–
[3]	–	31 [S]	432 [S]	1040 [S]	33 [S]	1 [R]	7 [R]	–	6 [S]	5 [R]
[4]	–	1 [S]	52 [S]	302 [S]	24 [S]	–	–	–	1 [S]	–
[5]	–	12 [S]	126 [S]	441 [S]	28 [S]	1 [R]	3 [R]	–	3 [S]	–

NCC[C@H](O)C(=O)N[C@@H]1C[C@H](N)[C@@H](O[C@H]2O[C@H](CN)[C@@H](O)[C@H](O)[C@H]2O)[C@H](O)[C@H]1O[C@H]1O[C@H](CO)[C@@H](O)[C@H](N)[C@H]1O [amikacin]
isolate count
Conditions	[1]	[2]	[3]	[6]	[7]	[8]	[9]	[10]
MIC: 0.25 mg/L	–	–	–	–	–	435 [S]	2310 [S]	12 [S]
MIC: 0.5 mg/L	178 [S]	88 [S]	341 [S]	163 [S]	343 [S]	1080 [S]	1300 [S]	15 [S]
MIC: 1 mg/L	67 [S]	28 [S]	15 [S]	3 [S]	14 [S]	61 [S]	45 [S]	–
MIC: 2 mg/L	6 [R]	–	2 [R]	–	1 [R]	1 [S]	9 [S]	1 [S]
MIC: 4 mg/L	4 [R]	–	2 [R]	–	3 [R]	3 [S]	7 [S]	–
MIC: 8 mg/L	–	–	4 [R]	–	–	3 [R]	7 [R]	1 [R]
MIC: >8 mg/L	1 [R]	–	–	–	–	–	–	–
MIC: >16 mg/L	–	–	7 [R]	–	–	3 [R]	–	–
MIC: ≤0.12 mg/L	–	–	–	–	–	25 [S]	109 [S]	1 [S]
MIC: ≤0.25 mg/L	258 [S]	39 [S]	1180 [S]	215 [S]	252 [S]	–	–	–
MIC: ≥8 mg/L	15 [R]	–	–	–	–	–	–	–
MIC: ≥16 mg/L	–	–	5 [R]	2 [R]	2 [R]	4 [R]	29 [R]	1 [R]
